Laboratory results taken from the RNAGym collection of RNA variant scans (doi:10.7554/elife.90254).
Read counts are not given, so values of variants with three or more changes are uncertain.

B1: OR4K15 (parent)
chain: GUUAACGGUCAUAGGCCAUGGAAACUAGGAGCACCAUUUCGCUGCCAGUGAAGAAAUGAACAAAGAAAAUCUGGGCCAGGCAGGCAUCAAAAGAAAUAGUCUUGCGCUCAACCAGAAAGUCUGUAAUCAUUUUAAGGGUA

Variants of: B1
Test: self-cleavage, relative activity (ratio to wild type); higher = more cleavage; in vitro, sequencing; the parent is a self-cleaving ribozyme
For A62G A118G U130C, the self-cleavage was 0.3. A55U U102C G115C C128U gave a self-cleavage of 0.1. Work on U19A A95G U133C yielded a self-cleavage of 2.1. In the case of G7A A11G A24G A98U A111G, the self-cleavage is reported as 0.04. A59G C85U U102C U103C U108C gave a self-cleavage of 0.01. Variant U38C A51G A78G U87C A92G has a self-cleavage of 0.25. A62G U70C A118G showed a self-cleavage of 0.21. Work on A5C U9C A23G U39C yielded a self-cleavage of 0.51. In the case of U38G A51G A98G, the self-cleavage is reported as 0.73. For U39A A56G A68G, the self-cleavage was 1.6. With A51G A60G U122A the self-cleavage was 0.58. Work on A94G U102C C105U U130C yielded a self-cleavage of 0.41. Variant U12G U39C U72G A78G has a self-cleavage of 0.42. With A82G A94U A98U the self-cleavage was 1.68. With U2C A60G U70C A89G the self-cleavage was 0.77. With A23G A59U A114U A126G the self-cleavage was 0.02. For A18U A22G U39A A90G, the self-cleavage was 0.98. For A27G U38C A54G A55U A67G U72C A89G A117G, the self-cleavage was 0.68. With U3A A62G G74U the self-cleavage was 0.14. For U9C A55G A59G U120C, the self-cleavage was 1.65. Variant A23G A33G A60U U132A has a self-cleavage of 1.12. A22G A66G A129G showed a self-cleavage of 0.86. Variant A52G A114G U139C has a self-cleavage of 0.49. With A22G A56G A98U A126G the self-cleavage was 1.25. Work on U2C A33G A68G U102C U122C yielded a self-cleavage of 0.93. A52G A118G C121A U130C showed a self-cleavage of 2.55. With A30G A56G A64G A96G the self-cleavage was 1.73. Work on A5G A22U A89U G137A yielded a self-cleavage of 0.78. Work on U39A A82G A135G yielded a self-cleavage of 0.76. Variant A59G U120C U139G has a self-cleavage of 0.94. Work on U43C A51G A90G yielded a self-cleavage of 0.84. With A67G U102C U132C the self-cleavage was 2.4. In the case of U9C A22G A98U, the self-cleavage is reported as 1.95. For A47G A95G A96G, the self-cleavage was 0.94. Variant U87C A126G U127C has a self-cleavage of 0.43. Work on A24G C32G A47G yielded a self-cleavage of 0.79. Work on A67G A69G U87C yielded a self-cleavage of 1.27. For A30G C42U A47G U72C U120C, the self-cleavage was 0.2. With U9A A51U U57C A69G A90G A110U A118U the self-cleavage was 0.07. Work on U37C A55G A68G A94G A117G yielded a self-cleavage of 1.47. Variant U70G A96G U120C has a self-cleavage of 0.9. With A94G U103C A117G the self-cleavage was 0.58. In the case of A47G C61U A118G A126G, the self-cleavage is reported as 0.61. With A11G A51G A52G the self-cleavage was 1.22. For U37C U57C A69U, the self-cleavage was 1.7. Work on U19C A23U A55G A92G U102C yielded a self-cleavage of 1.64. For U19C A47U A95G U122C A125G, the self-cleavage was 0.64. U19C A30G U139C showed a self-cleavage of 0.98. Work on U38C U49C A66G U131C yielded a self-cleavage of 0.97. In the case of A30G U57A U120C, the self-cleavage is reported as 0.94. With C10A A51G C85U the self-cleavage was 0.94. A52G A117G U127C gave a self-cleavage of 1.37. Variant A30G U37A A59G has a self-cleavage of 1.57. Variant U2C U37C A140G has a self-cleavage of 0.79. A56G A82U A94G U130C A135G showed a self-cleavage of 0.1. A30G U49C A62G A63G G115A showed a self-cleavage of 0.07. With A54G A60U G93C U120C the self-cleavage was 1.7. A52G A94G A110U A118G showed a self-cleavage of 0.89. U2A A86G U131C showed a self-cleavage of 1.06. With U9C A90G U97C the self-cleavage was 1.23. Work on U102A G106A A114G A140G yielded a self-cleavage of 0. Work on A47G U49C A78C U108C yielded a self-cleavage of 0.01. For A24G A36G U108A U122C, the self-cleavage was 0.01. In the case of A11G A60U A86U U87C U108C A114U, the self-cleavage is reported as 0.01. Variant U9C A64G A82G A92G A111G has a self-cleavage of 0.05. Work on A47U U72A A78G U87C yielded a self-cleavage of 0.21. Variant A5G A22U U39C has a self-cleavage of 1.39. In the case of A11G A47U A67G A94U A110G, the self-cleavage is reported as 0.09. For A22U A30G A94G, the self-cleavage was 0.73. U9C A30G A96G gave a self-cleavage of 1.38. A22G U38C C113U showed a self-cleavage of 0.15. Work on U2C A11G U19C A96G A110G U127C U132C yielded a self-cleavage of 0.05. A18C U87C A91G A116G showed a self-cleavage of 0.05. A13U A52G A96G U102C showed a self-cleavage of 2.28. For A47G A78G A92G A98G U103C, the self-cleavage was 0.06. A33U A52G A95G gave a self-cleavage of 2.2. U26C U37C C113U U122C gave a self-cleavage of 0.02. U19G U43A A54G C77U U100C gave a self-cleavage of 0.62. A18U A23U A27G U38C U39C A51U U127C gave a self-cleavage of 1.04. Variant A47G A82G A117G has a self-cleavage of 0.88. Variant U49A U87A A116U has a self-cleavage of 0. U43A A118G A126G showed a self-cleavage of 1.5. For A24G A56G A63G C81U, the self-cleavage was 0.37. With A13G A51U U87C U131A the self-cleavage was 0.71. With A18G A33G A54U the self-cleavage was 1.61. U49G A78C U131C showed a self-cleavage of 0.12. Work on C46U U102C G104A yielded a self-cleavage of 0.03. With U19A C42U C105U the self-cleavage was 0.04. Variant A18C U100C U102C A111G A116G A135G has a self-cleavage of 0. In the case of G20U A78C A92G A125G U127C, the self-cleavage is reported as 0. Variant U9C U102A U108C has a self-cleavage of 0.02. A23U U38C A111G showed a self-cleavage of 0.05. Work on A33U A68G U139C yielded a self-cleavage of 1.39. In the case of A90G U108C A125G A140G, the self-cleavage is reported as 0.01. U43A A60G A96G gave a self-cleavage of 2.41. A36G U57C A68G U122C showed a self-cleavage of 0.31. Variant A30U U38C A67G U120C has a self-cleavage of 0.84. For A111G A118G U130C, the self-cleavage was 0.01. A55G U108C A126G showed a self-cleavage of 0. In the case of C25A A27G A82G A126U, the self-cleavage is reported as 0.69. U9C C101U U132C gave a self-cleavage of 0.46. A11G A47G A60G A140G gave a self-cleavage of 0.51. Variant A11G G48U A55G A86G A95G has a self-cleavage of 1. U12A U38C A47U U122C gave a self-cleavage of 0.95. For A18G A22G A67G A110G, the self-cleavage was 0.28. For C46U U57C U100C U122C, the self-cleavage was 2.13. Variant G21A A23G A89G A92G A111G U120A has a self-cleavage of 0. For A30G U38C U122C U132C, the self-cleavage was 0.65. A27G U39A A68G U72C gave a self-cleavage of 0.77. A30G A55G A66G A116G showed a self-cleavage of 0.72. With A18G A64G A67G A94G the self-cleavage was 1.62. A56G A92G A125U showed a self-cleavage of 1.13. Work on U3C A63G G80C U108A yielded a self-cleavage of 0.03. With U3C A5G U12C U122C U130C the self-cleavage was 0.6. In the case of A11U A18G U37C A47G A63U, the self-cleavage is reported as 1.17. A51G A67G A82U gave a self-cleavage of 0.26. A5G A52G A92G A114G showed a self-cleavage of 0.87. U9A G58U U120C showed a self-cleavage of 0.77. In the case of A33G U37A U108A, the self-cleavage is reported as 0.03. Work on A60G A69U A82G U87C U108C A114G yielded a self-cleavage of 0.02. Work on A54G A78U U100A yielded a self-cleavage of 0.04. Work on A13G U43C A118G yielded a self-cleavage of 0.95. In the case of A82G A111G U122C, the self-cleavage is reported as 0. Variant A5G U72C A78U G106U A110G A117G U122C A134G has a self-cleavage of 0. For U39A A47G G74A U87A, the self-cleavage was 0.3. With U9C A63G A69U A114U the self-cleavage was 0.14. A33G A62G A111G showed a self-cleavage of 0.02. Variant A27G C46U A116G has a self-cleavage of 0.65. Work on U9C A13G A36G A98G yielded a self-cleavage of 0.59. In the case of U39C U43C A47G A96G U132A, the self-cleavage is reported as 1.75. For A22G A36U A64G U130C, the self-cleavage was 0.84. For A63G A86G U120A U124C, the self-cleavage was 0.86. With A55G U57A A66G A82G the self-cleavage was 0.27. In the case of A33G A69G A94U U130C, the self-cleavage is reported as 0.76. Work on A54G U108C U130G yielded a self-cleavage of 0. A91G A110G U131C showed a self-cleavage of 0.08. U2C A33G A52G U131C gave a self-cleavage of 0.57. A23U A55G A89G A91G gave a self-cleavage of 1.06. Variant A23G A68G G80A U127C has a self-cleavage of 0.01. For G1A U9C A111G U139C, the self-cleavage was 0.07. A23G A54G A59G A69U A111G U122C gave a self-cleavage of 0.05. In the case of U39C U49C A89G U108C A135G, the self-cleavage is reported as 0. Work on U2C A68G A69U A86G A134U yielded a self-cleavage of 1.18. Variant G29U A51G A59G U108A has a self-cleavage of 0. For U12C U37C A111G, the self-cleavage was 0. Variant A11G A51G U87C has a self-cleavage of 1.56. A24G A52G A59G A110G gave a self-cleavage of 0.15. Work on A59G A64G U70C G80A yielded a self-cleavage of 0.1. U97C U130C G138C U139C showed a self-cleavage of 0.18. In the case of G41U A54G U57C G123U, the self-cleavage is reported as 2.56. With A27U U49C A52U U57C the self-cleavage was 0.42. With A52U A69G A118U A125G the self-cleavage was 0.28. In the case of U19C A51U A96G U122G, the self-cleavage is reported as 2.12. A33G A52G U131C gave a self-cleavage of 0.64. For A30G U37C A78C A95G A114U A118G, the self-cleavage was 0.08. A11G A89G A134G gave a self-cleavage of 0.96. In the case of U12C A64G A90G U127C, the self-cleavage is reported as 0.42. In the case of U37C A51U A66G U131C, the self-cleavage is reported as 0.93. With A30G G31A A66U C107G the self-cleavage was 0.02. Variant A54G A86G U103C has a self-cleavage of 0.63. Variant A18G A23G C45U A47U A51U A55G A125U has a self-cleavage of 0.71. With A22G U43C A59G A67G the self-cleavage was 0.76. Variant A55G A60G A68U A69G U97C has a self-cleavage of 0.57. Variant A18G A22C A23G U57A A63G A134G has a self-cleavage of 1.17. Variant C76U A117G A118G has a self-cleavage of 0.04. C17U U72C U87G A91U A95G gave a self-cleavage of 0.19. Work on A18U A33G A91G U124C yielded a self-cleavage of 0.29.
